# Measurements as given in the supplement of paper PMC4166925.
# ± gives the standard deviation of the averaged measurements. The full ranking holds about 33,000 sequences; the median of “E-score (dimensionless, -0.5 to 0.5)” is about -0.046, and the highest 2% start at about 0.36. The list shows a part of the results.
# Tested on: T1, SpTbr T-box DNA-binding domain (GST fusion)
# T1 sequence: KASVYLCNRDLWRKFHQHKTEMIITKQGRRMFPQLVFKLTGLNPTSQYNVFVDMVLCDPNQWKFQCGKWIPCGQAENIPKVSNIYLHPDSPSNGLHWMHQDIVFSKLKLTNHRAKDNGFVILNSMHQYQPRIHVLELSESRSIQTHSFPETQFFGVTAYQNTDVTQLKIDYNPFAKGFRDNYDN
# Assay: PBM E-score of 8-mer (E-score (dimensionless, -0.5 to 0.5)); Tbr is Tbrain of the sea star Patiria miniata (Pm) or the sea urchin Strongylocentrotus purpuratus (Sp); higher = stronger binding preference; most listed sequences are background and not binding sites
# Conditions: the construct has about 5 more residues each side
# Protocol: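 Universal protein-binding microarray (Agilent AMADID 016060, 60-bp probes with a 35-bp variable region) incubated with 200 nM GST-fused Strongylocentrotus purpuratus Tbr T-box DNA-binding domain (residues 362-554) in PBS pH 7.5. Scored for every ungapped 8-mer (given with its reverse complement) as E-score (range -0.5 to 0.5; >0.45 counts as bound) and Z-score of median probe intensity. Two replicate arrays (datasets 1 and 2).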
# 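Further: protein at 200 nM in PBS on universal double-stranded arrays.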
row,Sequence,PBM E-score of 8-mer
1,CCATCAGC,-0.115 ± 0.027
2,CCCAATCC,0.0195 ± 0.072
3,GGAGACAA,-0.00259 ± 0.0093
4,CTTTCCTC,-0.0992 ± 0.05
5,GCGACCCA,-0.0308 ± 0.06
6,CGGTGGGA,0.00775 ± 0.037
7,CCCACAAC,0.254 ± 0.0055
8,ATAGGCCA,-0.327 ± 0.07
9,AAAACTCT,-0.0653 ± 0.048
10,CACTCGCA,0.351 ± 0.0057
11,ATTCACTG,0.0169 ± 0.045
12,AGCGTGCA,-0.0595 ± 0.016
13,CTAATGGC,0.113 ± 0.049
14,CACCGGGG,-0.211 ± 0.025
15,GATACTGC,-0.0565 ± 0.046
16,AGACGTCC,-0.16 ± 0.0048
17,ATCTGAAA,-0.116 ± 0.084
18,CCCTGTAG,-0.36 ± 0.056
19,CGCTCGAA,0.0265 ± 0.066
20,GACAAGTA,0.181 ± 0.05
21,ACAAACCG,0.0539 ± 0.054
22,AAACCACA,0.0879 ± 0.052

row,Sequence,PBM E-score of 8-mer
1,AGAGCTTC,-0.253 ± 0.028
2,AGGTCCTG,-0.109 ± 0.031
3,ACGAAACG,0.15 ± 0.041
4,CACTCAAC,0.1361 ± 0.00042
5,GGTGGATA,-0.0132 ± 0.019
6,TAGATAAA,-0.308 ± 0.026
7,GACTAACC,0.0204 ± 0.03
8,GCTGCTTA,-0.0784 ± 0.055
9,ACATAGTG,0.206 ± 0.0082
10,CCGTTTTA,-0.0769 ± 0.0085
11,CCAATTGG,-0.141 ± 0.074
12,CGGCCCGA,-0.146 ± 0.018
13,CAACCCCC,-0.118 ± 0.0024
14,CGAATAAG,-0.0861 ± 0.031
15,CAACACGA,0.185 ± 0.0087
16,CAAGTCCA,-0.11 ± 0.0099
17,AACGCAAG,-0.0223 ± 0.0086
18,GTATCGTA,0.0225 ± 0.15
19,ACCACGCC,0.163 ± 0.037
20,GCCTACGA,-0.0302 ± 0.07
21,TCGACCGA,-0.169 ± 0.0017
22,AAGCAAGA,-0.0292 ± 0.048

row,Sequence,PBM E-score of 8-mer
1,ACCATTGA,0.0727 ± 0.061
2,CTTATAGA,-0.095 ± 0.0066
3,TAAGTCAA,-0.0474 ± 0.027
4,GACAATCC,0.0693 ± 0.021
5,CAATTGGA,-0.182 ± 0.04
6,ATGGTTTC,-0.0274 ± 0.0044
7,ACCGGGCG,0.115 ± 0.046
8,ATGCTAGC,-0.00369 ± 0.046
9,AGTACTGA,-0.0534 ± 0.012
10,AATCAGTC,-0.0936 ± 0.015
11,CAGACCGC,-0.198 ± 0.051
12,ACTATCAG,0.0352 ± 0.0071
13,CACATTCA,0.21 ± 0.041
14,AGATCTCG,0.0398 ± 0.011
15,CCAAAAAC,-0.0838 ± 0.018
16,ACGGCTGC,0.0325 ± 0.034
17,CTCAGGAG,-0.129 ± 0.05
18,CAGACTAG,-0.246 ± 0.087
19,CCATCGAA,-0.263 ± 0.029
20,CACCAGTG,0.102 ± 0.04
21,CGCTGGAC,0.0117 ± 0.034
22,AGTTTCAC,0.287 ± 0.019

row,Sequence,PBM E-score of 8-mer
1,ATAATCGA,-0.102 ± 0.086
2,CAGTTGGG,-0.0462 ± 0.058
3,AGAGTGGG,-0.128 ± 0.066
4,ACTTCCGC,0.0332 ± 0.13
5,CAGTTCCC,0.0834 ± 0.012
6,ACGCATAC,-0.0105 ± 0.01
7,ACCGTCGC,0.166 ± 0.037
8,ACATGACT,-0.0828 ± 0.028
9,CGCAGTCA,-0.0245 ± 0.0092
10,ACCTGTGG,0.239 ± 0.013
11,CTATTGCA,-0.128 ± 0.029
12,GTACAAGA,-0.30546 ± 0.00023
13,AGCTGTTA,0.267 ± 0.017
14,AGAACCCT,-0.224 ± 0.064
15,CAAATAGA,-0.161 ± 0.02
16,CTCCTAGA,-0.253 ± 0.008
17,AAGCTGTA,-0.0678 ± 0.059
18,ATTGAGCA,-0.268 ± 0.018
19,AAAATGAC,0.0806 ± 0.054
20,ACCCTCGA,0.1 ± 0.027
